Whole data set: some 110,000 compounds, median “z-score” near -0.1, cut for the highest 2% near 2. The list shows a part of the results.
Each compound was assayed against Metabotropic glutamate receptor 8 (Rattus norvegicus) (UniProt P70579) (assay: rat mGluR8 modulators via GIRK flux, primary screen, cell-based, thallium flux, HTS (AID 488969)). Conditions: HEK293 rat mGluR8, GIRK (G protein-gated inwardly rectifying potassium channel) thallium flux, FluoZin2; at 10 µM; stronger effect = higher value; submaximal glutamate (EC20) added with thallium.
Chain of UniProt P70579 (P70579 whole entry, looked up): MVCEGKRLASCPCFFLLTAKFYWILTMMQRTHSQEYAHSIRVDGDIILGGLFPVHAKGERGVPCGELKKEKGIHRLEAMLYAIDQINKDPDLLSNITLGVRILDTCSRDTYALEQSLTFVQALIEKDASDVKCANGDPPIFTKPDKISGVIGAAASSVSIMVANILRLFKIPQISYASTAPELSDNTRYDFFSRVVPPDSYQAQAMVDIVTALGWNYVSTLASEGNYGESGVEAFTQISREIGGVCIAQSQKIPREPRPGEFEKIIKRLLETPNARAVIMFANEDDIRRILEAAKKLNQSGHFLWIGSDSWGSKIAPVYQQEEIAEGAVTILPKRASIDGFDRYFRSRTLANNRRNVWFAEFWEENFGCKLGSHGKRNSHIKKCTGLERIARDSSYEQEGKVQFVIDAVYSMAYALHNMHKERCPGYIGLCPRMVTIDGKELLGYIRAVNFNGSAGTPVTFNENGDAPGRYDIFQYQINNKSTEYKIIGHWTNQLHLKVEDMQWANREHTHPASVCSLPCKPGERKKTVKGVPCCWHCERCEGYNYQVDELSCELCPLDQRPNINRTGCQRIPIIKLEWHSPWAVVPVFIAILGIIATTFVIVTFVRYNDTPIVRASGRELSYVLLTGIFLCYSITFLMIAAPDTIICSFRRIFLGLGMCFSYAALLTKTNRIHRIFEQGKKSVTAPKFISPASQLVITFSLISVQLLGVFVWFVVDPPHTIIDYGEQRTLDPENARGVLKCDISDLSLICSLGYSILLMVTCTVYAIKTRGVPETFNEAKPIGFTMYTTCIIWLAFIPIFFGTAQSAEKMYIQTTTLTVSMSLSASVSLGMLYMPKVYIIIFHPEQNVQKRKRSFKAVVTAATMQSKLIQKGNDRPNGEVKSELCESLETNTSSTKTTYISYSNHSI

SMILES | z-score
CCCc1cc(=O)oc2cc(Oc3ncccn3)ccc12 | -0.455
Cn1cc(C2CC(c3ccccc3)=NN2C(=O)c2ccccc2)c2ccccc21 (stereo not given) | -0.0998
Clc1ccc2nc(-c3ccc(Br)s3)cn2c1 | 0.066
CCCOC(=O)c1ccc(NC(=O)c2cc(OC)c(OC)c(OC)c2Br)cc1 | 0.194
CCCCn1c(N)c(-c2nc3ccccc3o2)c2c([N+](=O)[O-])nn(C)c(=O)c21 | -0.107
C=CCn1c(O)c(C(CC)=Nc2ccccc2NC(=O)CC)c(=O)[nH]c1=O | -0.48
Cc1ccccc1-n1nc(C(=O)O)cc1-c1ccccc1 | -2.03
Cc1ccccc1-c1noc(N)c1C#N | 0.329
Cc1onc(-c2ccccc2)c1C(=O)Nc1cccc2nsnc12 | -0.396
COc1ccccc1CNC(=O)C(CCSC)NC(=O)C1CCC(C)CC1 (stereo not given) | -0.988
O=C(O)c1cccc(S(=O)(=O)Nc2ccccc2Cl)c1 | 0.0719
CCOc1ccc(-c2nnc(Nc3ccc(OC)c(C(=O)N4CCCCC4)c3)c3ccccc23)cc1 | -0.286
CC(C)Nc1nc(NC(C)(C)C)nc(Oc2ccc(=O)n(-c3ccccc3)n2)n1 | -1.37
CC(C)c1ccc(C(=O)N/N=C/c2cccc(Cl)c2Cl)cc1 | -0.0927
CC1CC(C)CN(S(=O)(=O)c2ccccc2[N+](=O)[O-])C1 (stereo not given) | -0.156
FC(F)(F)c1nnc2ccc(N3CCOCC3)nn12 | -0.0539
O=C(NCCNS(=O)(=O)c1ccc(Cl)cc1)c1cc(OCC(F)(F)F)ccc1OCC(F)(F)F | -0.178
O=S(=O)(c1ccccc1)N(CC(O)Cn1c2ccccc2c2ccccc21)c1ccccc1 (stereo not given) | 0.127
O=C(CSc1ncn(-c2ccccc2)n1)Nc1nc(-c2ccccc2)cs1 | -0.421
COCCN1CCc2[nH]c(=S)[nH]c(=O)c2C1 | -0.14
CN1CCN(CC(=O)N(Cc2c(C#N)c3ccccc3n2C)c2ccccc2)CC1 | 1.09
O=C(/C=C/c1ccc(Cl)c([N+](=O)[O-])c1)Nc1cccnc1 | -0.206
CCN1N=C(c2cc(Cl)sc2Cl)CSC1=O | 0.341
Cc1nc2ccc(Cc3ccc4nc(C)[nH]c4c3)cc2[nH]1 | -0.199
CCOc1ccc(-n2c(SCc3ccc([N+](=O)[O-])cc3)nnc2-c2ccc(OC)cc2)cc1 | -0.658
CCNc1nc(NCC)nc(N(n2cnnc2)S(=O)(=O)c2ccc(C)cc2)n1 | -0.182
Cc1cccc(-c2cc3nc4c(c(NCc5ccco5)n3n2)CCCC4)c1 | 0.515
COc1ccc(CN2c3cc(S(=O)(=O)N4CCOCC4)ccc3N3CCCC32)cc1 (stereo not given) | -0.0468
O=C(O)C1CCCCC1C(=O)NCc1ccccc1 (stereo not given) | -0.716
O=C(NNS(=O)(=O)c1ccccc1[N+](=O)[O-])c1ccncc1 | -0.199

Reference: PubChem BioAssay AID488969 (Vanderbilt High Throughput Screening Facility, 2010)
